# Among all 39,000 compounds or so, about 220 (0.56%) showed activity. The list shows a part of the results.
# System: Escherichia coli K-12 BW25113
# Assay: relative growth (OD600 normalised to plate interquartile mean) (fraction); higher = less growth inhibition, active = 0.2 or less
# Conditions: 50 µM; LB; incubation time: overnight (16-24 h)
# 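Note: static incubation at 37 °C against the wild-type strain, values averaged over two biological replicates.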
row,Compound,relative growth
1,CC(C)NC(=O)N(C)C[C@@H]1Oc2ccc(NC(=O)Nc3ccc4c(c3)OCO4)cc2C(=O)N([C@@H](C)CO)C[C@H]1C,inactive: 0.879
2,C[C@@H]1CCCCO[C@H](CN(C)Cc2ccc(Cl)c(Cl)c2)[C@@H](C)CN([C@@H](C)CO)C(=O)c2cc(NC(=O)Nc3ccc4c(c3)OCO4)ccc2O1,inactive: 0.985
3,COc1cccc(NC(=O)N[C@@H]2CC[C@@H](CC(=O)N3CCN(C)CC3)O[C@H]2CO)c1,inactive: 1.02
4,N=C(N)NCCC[C@@H]1NC(=O)[C@@H](N)CSSC[C@@H](C(=O)O)NC(=O)[C@H](CC(=O)O)NC(=O)[C@@H]2CCCN2C(=O)CNC(=O)[C@H](CCCCN)NC(=O)[C@H](CC(=O)O)NC(=O)CNC1=O,inactive: 1.02
5,O=C(CN1CCOCC1)N[C@H]1CC[C@@H](CCn2cc(C3CC3)nn2)O[C@@H]1CO,inactive: 0.997
6,COc1ccc(S(=O)(=O)Nc2ccc3c(c2)C(=O)N([C@@H](C)CO)C[C@@H](C)[C@H](CN(C)C(=O)NC2CCCCC2)OCCCC[C@H](C)O3)cc1,inactive: 1.01
7,C[C@@H]1CN([C@H](C)CO)C(=O)Cc2cc(NC(=O)Nc3cccc4ccccc34)ccc2O[C@H]1CN(C)S(=O)(=O)c1ccc(Cl)cc1,inactive: 1.04
8,CCCCC[C@@H](C[C@@H](CC(=O)O)O[C@H]1O[C@@H](CO)[C@@H](O[C@H]2O[C@@H](CO)[C@@H](O)[C@@H](O)[C@@H]2O)[C@@H](O)[C@@H]1O)OC(=O)C[C@H](O)C[C@H](CCCCC)O[C@H]1O[C@@H](CO)[C@@H](O)[C@@H](O)[C@@H]1O,inactive: 1.01
9,COc1ccc(S(=O)(=O)N(C)C[C@H]2OCCCC[C@@H](C)Oc3ccc(NC(=O)Nc4ccccc4)cc3C(=O)N([C@@H](C)CO)C[C@@H]2C)cc1,inactive: 0.88
10,COc1ccc(NC(=O)N(C)C[C@H]2Oc3c(NC(=O)c4cc(C)nn4C)cccc3C(=O)N([C@H](C)CO)C[C@H]2C)cc1,inactive: 0.983
11,C[C@@H]1CN([C@H](C)CO)C(=O)c2cc(NC(=O)C3CC3)ccc2O[C@H]1CN(C)Cc1ccc(-c2ccccc2)cc1,inactive: 1.03
12,CCS(=O)(=O)N1CCC(C(=O)N(C)C)CC1,inactive: 1.01
13,O=C1CNC(=O)N1CC1CCNCC1,inactive: 1.03
14,CN[C@H]1CCS(=O)(=O)C1,inactive: 0.988
15,C[C@@H]1CN([C@H](C)CO)C(=O)c2cccc(NC(=O)c3ccc(-c4nccs4)cc3)c2O[C@H]1CN(C)C(=O)Nc1ccc(F)cc1,inactive: 1
16,C[C@H](CO)N1C[C@H](C)[C@@H](CN(C)Cc2ccc(Cl)c(Cl)c2)OCCCC[C@H](C)Oc2ccc(NC(=O)CCC(F)(F)F)cc2C1=O,inactive: 0.993
17,C[C@@H]1CN([C@@H](C)CO)C(=O)Cc2cc(NC(=O)Cc3ccccc3)ccc2O[C@@H]1CN(C)Cc1ccc(-c2ccccc2)cc1,inactive: 1.05
18,COc1ccc(S(=O)(=O)Nc2ccc3c(c2)C(=O)N([C@H](C)CO)C[C@@H](C)[C@@H](CN(C)S(=O)(=O)c2cn(C)cn2)O3)cc1,inactive: 1.02
19,CC(C)NC(=O)N(C)C[C@H]1OCCCC[C@@H](C)Oc2ccc(NS(=O)(=O)c3cn(C)cn3)cc2C(=O)N([C@@H](C)CO)C[C@@H]1C,inactive: 0.981

row,Compound,relative growth
1,CCN1C(=O)CN(CC(=O)O)C1=O,inactive: 1.04
2,O=C(C[C@@H]1CC[C@H](NC(=O)c2ccc(F)cc2)[C@H](CO)O1)NCc1ccncn1,inactive: 1.01
3,C[C@H](CO)N1C[C@H](C)[C@H](CN(C)S(=O)(=O)c2cn(C)cn2)Oc2ccc(NC(=O)Nc3ccc4c(c3)OCO4)cc2CC1=O,inactive: 0.979
4,CCCN1C[C@@H](C)[C@@H](OC)CN(C)C(=O)c2cc(NS(=O)(=O)c3cn(C)cn3)ccc2OC[C@@H]1C,inactive: 0.98
5,Cn1ccc(CO)n1,inactive: 1.01
6,O=C(NO)c1ccc(C(=O)N/N=C/c2ccc(B(O)O)cc2)cc1,inactive: 0.977
7,O=C(O[C@@H]1Cc2c(O)cc(O)cc2O[C@@H]1c1cc(O)c(O)c2c(=O)c(O)cc([C@H]3Oc4cc(O)cc(O)c4C[C@H]3O)c-2c1)c1cc(O)c(O)c(O)c1,inactive: 0.941
8,C[C@H](CO)N1C[C@H](C)[C@H](CN(C)Cc2ccc3c(c2)OCCN3C)OCc2cn(nn2)CCCC1=O,inactive: 0.954
9,C[C@@H]1CN([C@@H](C)CO)C(=O)c2cc(NC(=O)Nc3cccc4ccccc34)ccc2O[C@@H](C)CCCCO[C@H]1CN(C)CC1CC1,inactive: 1
10,CC(C)c1ccc(C(C)(C)CO)cc1,inactive: 0.975
11,C[C@@H]1CCCCO[C@H](CN(C)Cc2ccccc2)[C@@H](C)CN([C@@H](C)CO)C(=O)c2cc(NC(=O)CCC(F)(F)F)ccc2O1,inactive: 0.991
12,O=C(C[C@H]1CC[C@@H](NS(=O)(=O)c2ccccc2)[C@@H](CO)O1)NCc1ccncn1,inactive: 1.01
13,C[C@@H]1CN([C@H](C)CO)C(=O)CCCn2nncc2CO[C@@H]1CN(C)C(=O)C1CC1,inactive: 1.01
14,O=C1O[C@@H](c2ccccc2)[C@@H](c2ccccc2)N2[C@@H](c3ccc(O)cc3)[C@]3(C(=O)Nc4ccc(C#CC5(O)CCCCCC5)cc43)[C@@H](C(=O)N3CCN(c4ncccn4)CC3)[C@H]12,inactive: 1.01
15,O=C(C[C@H]1C=C[C@H](NC(=O)CN2CCOCC2)[C@H](CO)O1)NCCc1ccccc1,inactive: 0.979
16,CN(C)C(=O)c1cccc(-c2ccc3n(c2=O)C[C@H]2[C@H](CO)[C@@H](C(=O)NCC4CC4)N[C@@H]32)c1,inactive: 0.963
17,O=C(O)CCNC(=O)c1cccc([N+](=O)[O-])c1,inactive: 0.954
18,O=C1N[C@@H](Cc2ccccc2)C(=O)N2[C@@H]1C[C@@H](C(=O)NCc1ccc(F)cc1)[C@H]2c1cccc(OCCO)c1,inactive: 0.993
19,C[C@@H]1CN([C@@H](C)CO)C(=O)c2cc(NS(=O)(=O)c3ccc(F)cc3)ccc2O[C@@H]1CN(C)CC1CC1,inactive: 0.992
